In paper PMC4336329 (PLoS ONE, 2015):
About 2,200 (0.71%) of roughly 310,000 compounds showed an effect of 50% or more. Effects have a minus sign here. The list shows a part of the results.

Target: human ether-à-go-go-related gene (hERG) potassium channel (human, UniProt Q12809)
Test: primary screen, population patch clamp on CHO cells stably expressing hERG

human ether-à-go-go-related gene (hERG) potassium channel, sequence (Q12809 whole entry, looked up): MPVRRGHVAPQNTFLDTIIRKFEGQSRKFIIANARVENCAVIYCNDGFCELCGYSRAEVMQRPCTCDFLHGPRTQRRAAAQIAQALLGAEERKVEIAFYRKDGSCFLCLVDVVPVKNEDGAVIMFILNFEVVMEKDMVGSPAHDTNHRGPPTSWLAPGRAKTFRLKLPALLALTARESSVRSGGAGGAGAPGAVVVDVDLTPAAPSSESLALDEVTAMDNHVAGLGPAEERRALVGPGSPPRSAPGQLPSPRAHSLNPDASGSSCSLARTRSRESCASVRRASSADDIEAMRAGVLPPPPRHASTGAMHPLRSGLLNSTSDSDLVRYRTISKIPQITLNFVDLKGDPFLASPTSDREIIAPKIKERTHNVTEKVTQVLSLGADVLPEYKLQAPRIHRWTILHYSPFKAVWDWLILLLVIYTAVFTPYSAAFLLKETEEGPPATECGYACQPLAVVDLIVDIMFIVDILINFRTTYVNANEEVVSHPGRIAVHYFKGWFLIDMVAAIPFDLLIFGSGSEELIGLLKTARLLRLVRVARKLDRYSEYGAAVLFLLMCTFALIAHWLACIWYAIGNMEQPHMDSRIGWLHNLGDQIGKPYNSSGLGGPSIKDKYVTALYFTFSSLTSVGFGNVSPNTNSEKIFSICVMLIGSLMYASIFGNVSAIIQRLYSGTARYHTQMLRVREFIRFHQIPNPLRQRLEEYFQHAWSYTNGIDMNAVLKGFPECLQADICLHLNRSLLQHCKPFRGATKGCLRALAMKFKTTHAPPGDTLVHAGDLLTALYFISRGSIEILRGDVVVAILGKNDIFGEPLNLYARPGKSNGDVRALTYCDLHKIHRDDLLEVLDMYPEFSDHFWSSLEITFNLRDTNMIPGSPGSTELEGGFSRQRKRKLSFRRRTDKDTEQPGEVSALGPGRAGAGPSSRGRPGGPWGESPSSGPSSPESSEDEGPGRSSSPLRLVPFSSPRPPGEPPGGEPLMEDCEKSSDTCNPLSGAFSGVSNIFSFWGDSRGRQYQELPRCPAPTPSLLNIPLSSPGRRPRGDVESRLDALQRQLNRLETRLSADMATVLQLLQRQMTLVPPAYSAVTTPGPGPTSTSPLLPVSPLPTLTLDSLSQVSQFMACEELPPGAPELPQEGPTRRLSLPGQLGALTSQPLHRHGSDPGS

SMILES | hERG current change (%, negative = inhibition) at 1uM
O=C(NC(Cc1ccccc1)C(=O)O)/C(=C/c1ccc(Br)cc1)NC(=O)c1ccc(Br)o1 (centres unmarked) | 12.7%
O=C(CNC(=O)N1CC(=O)Nc2ccccc21)Nc1cc(Cl)ccc1Cl | 12%
CCS(=O)(=O)N1CCCC(C(=O)N2CCc3ccccc3C2)C1 (centres unmarked) | -4.77%
CCn1c(SCC(=O)C(C)(C)C)nnc1-c1cnccn1 | 13.5%
COc1ccc(C(=O)CCC(=O)Nc2ccc(Cl)cc2)cc1 | 14%
COc1ccc(C(=O)NC(C(=O)NCC2(N3CCCCC3)CCCCC2)C(C)C)cc1 (centres unmarked) | 8%
COc1ccc2[nH]c(C(=O)O)c(CCN3C(=O)c4ccc(C(=O)O)cc4C3=O)c2c1 | 8.94%
CCc1ccccc1NC(=O)N1CCCC(CCC(=O)N(C)CCc2ccccn2)C1 (centres unmarked) | 10.8%
NS(=O)(=O)c1cccc(NC(=O)CSc2ncnc3ccccc23)c1 | 3.54%
COc1ccc(CCNC(=O)N2CCOCC2)cc1 | 8.32%
CCNC(=S)N1CCN=C1Nc1nc(C)cc(C)n1 | 7.53%
COc1ccccc1C(=O)NNC(=S)NC(=O)c1cccs1 | 19%
Cc1nc(SCC(=O)N2CCOCC2)c2c(=O)n(C)c(=O)n(C)c2n1 | 11.8%
CCOC(=O)N1CCN(C(=O)c2ccc3c(c2)N(Cc2cccc(Cl)c2)C(=O)c2ccccc2S3=O)CC1 (centres unmarked) | 14.4%
O=c1cc(O)c(-c2ccc(Cl)c(Cl)c2)c(Cl)[nH]1 | 6.42%
Nc1ccc(Br)c2c1C(=O)c1ccccc1C2=O | 7.59%
COc1cccc(-c2ccc3nnc(SCC(=O)N4CCOCC4)n3n2)c1 | 1%
Cc1ccc2nc(-c3ccccc3C)oc(=O)c2c1 | 15.3%
O=C(Cc1c(Cl)cccc1Cl)Nc1cccc(S(=O)(=O)N2CCOCC2)c1 | -0.127%
CCCCN1C=C(C(=O)OC)C(c2ccccc2C(F)(F)F)C(C(=O)OC)=C1 | -0.486%
O=C(COc1cccc(F)c1)Nc1nc(-c2ccncc2)cs1 | 11.1%
O=C(NCCCN1CCCC1=O)[C@H](CSCc1ccccc1)N1Cc2ccccc2C1=O | 9.36%

SMILES | hERG current change (%, negative = inhibition) at 1uM
Cc1cc2c(cc1C)CN(c1ccccc1)C2 | 12.9%
COc1ccc(N(C(=O)c2snc(C(N)=O)c2N)C(C(=O)NCc2ccc(F)cc2)c2ccc(O)cc2)cc1 (centres unmarked) | 18.9%
CC(=O)c1cc(C#N)c(Oc2cccc(C(F)(F)F)c2)nc1C | 15%
Cc1c(OCc2nn[nH]n2)ccc2c3c(c(=O)oc12)CCC(C)C3 (centres unmarked) | -0.451%
CS(=O)(=O)Nc1ccc(C(=O)Nc2ccccc2C(=O)NCc2ccco2)cc1 | -58%
CCC1=[N+]([O-])C(C)(/C(C)=N\O)N(O)C1(C)C (centres unmarked) | 11.4%
COC(=O)c1ccc(NC(=O)CSc2ccccc2)cc1 | 7.95%
Cc1cc(N)n(C2CCN(C)CC2)n1 | 6.55%
O=C(Nc1ccccc1)N1CCC(O)(c2cccc(C(F)(F)F)c2)CC1 | 12%
Cc1ccc(S(=O)(=O)CC(O)CN2CCCC2=O)cc1 (centres unmarked) | 20.7%
CC(=O)c1ccc(NS(=O)(=O)c2cccc(C)c2)cc1 | -8.69%
O=C(NC1CCCC1)C(c1ccccc1)N(C(=O)c1ccno1)c1cccnc1 (centres unmarked) | 10.3%
CC(NC(=O)COC(=O)C1CC2CCCC(C1)C2=O)c1ccccc1 (centres unmarked) | 3.89%
CCOC(=O)c1ccc(N2CCCCC2)c(NS(=O)(=O)c2cccc(C(F)(F)F)c2)c1 | 4.54%
COc1ccc(NS(=O)(=O)c2ccc(C)c(C(=O)NCC(c3cccs3)N3CCOCC3)c2)cc1 (centres unmarked) | 1.44%
O=S(=O)(c1ccc2c(c1)C(=NO)c1cc(S(=O)(=O)N3CCCCC3)ccc1-2)N1CCCCC1 | 7.4%
O=C1CN(C(=O)CSc2ccc(-c3ccc(F)cc3)nn2)c2ccccc2N1 | 2.58%
Cc1ccc(OCCSc2nc3ccccc3n2CC(=O)O)cc1C | 14.2%
Cc1ccc(C(C)(C)NC(=O)C2CCC(=O)N(CCCN3CCOCC3)C2)cc1 (centres unmarked) | 5.85%
O=C(NCC(=O)N1CCC2(CC1)NCCc1[nH]cnc12)c1ccc(Br)cc1 | 20.8%
CC(C)N(CCNCC(O)COc1ccc(C(C)(C)c2ccccc2)cc1)C(C)C.O=C(O)C(=O)O (centres unmarked) | -4.4%
CC(C)Oc1cccc(C(=O)C2CCCN(C(=O)CCc3cnn(C)c3)C2)c1 (centres unmarked) | 10.7%
